Data published in PMC3347801.
Results are given in words; binding and its absence hold for the method and conditions named. Binding seen in cells or lysates may run through a third protein. Some results given as binding are weak or reduced against the parent protein; the word gives no strength.

Experiments:
Test in all cases: co-IP; lysates of transfected HEK-293T cells (20 mM Tris/HCl pH 7.4, 150 mM NaCl, 1 mM EDTA, 1 % Triton X-100, 20 mM iodoacetamide) immunoprecipitated with anti-E2 serum R646, 2 h at 4 °C, protein A–Sepharose; reducing and non-reducing SDS-PAGE; blot with anti-E1 mAb A4 and anti-E2 mAbs AP33 and ALP98; grades are the estimated amount relative to WT
[1] = target: HCV E2 glycoprotein insertion mutant in408 (hepatitis C virus genotype 1a strain H77c) (UniProt P27958)
[2] = target: HCV E2 glycoprotein insertion mutant in413 (hepatitis C virus genotype 1a strain H77c) (UniProt P27958)
[3] = target: HCV E2 glycoprotein insertion mutant in422 (hepatitis C virus genotype 1a strain H77c) (UniProt P27958)
[4] = target: HCV E2 glycoprotein insertion mutant in424 (hepatitis C virus genotype 1a strain H77c) (UniProt P27958)
[5] = target: HCV E2 glycoprotein insertion mutant in456 (hepatitis C virus genotype 1a strain H77c) (UniProt P27958)
[6] = target: HCV E2 glycoprotein insertion mutant in531 (hepatitis C virus genotype 1a strain H77c) (UniProt P27958)
[7] = target: HCV E2 glycoprotein insertion mutant in540 (hepatitis C virus genotype 1a strain H77c) (UniProt P27958)
[8] = target: HCV E2 glycoprotein insertion mutant in596 (hepatitis C virus genotype 1a strain H77c) (UniProt P27958)
[9] = target: HCV E2 glycoprotein insertion mutant in620 (hepatitis C virus genotype 1a strain H77c) (UniProt P27958)
[10] = target: HCV E2 glycoprotein insertion mutant in630 (hepatitis C virus genotype 1a strain H77c) (UniProt P27958)
[11] = target: HCV envelope glycoprotein E2, wild type (genotype 1a strain H77c) (hepatitis C virus genotype 1a strain H77c) (UniProt P27958)

Measured: binding

HCV envelope glycoprotein E1, wild type (genotype 1a strain H77c) (from UniProt P27958 192-383)
binds: all assays above
